# Data reported in the supplement of paper PMC9446081.
# In all, about 39,000 compounds went through this assay and about 220 (0.56%) showed activity. The list shows a part of the results.
# Test system: Escherichia coli K-12 BW25113
# Test: relative growth (OD600 normalised to plate interquartile mean) (fraction); higher = less growth inhibition, active = 0.2 or less
# Settings: 50 µM; LB; incubation time: overnight (16-24 h)
# 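Also: static incubation at 37 °C against the wild-type strain, values averaged over two biological replicates.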
row,Structure (SMILES),relative growth
1,O=C(NO)c1cccc(C(=O)N/N=C/[C@H](O)[C@@H](O)[C@H](O)CO)c1,inactive: 0.986
2,C[C@H](CO)N1C[C@H](C)[C@@H](CN(C)Cc2ccc(-c3ccccc3)cc2)Oc2ccc(NC(=O)Nc3ccccc3)cc2CC1=O,inactive: 1.04
3,C[C@H](CO)N1C[C@H](C)[C@H](CN(C)Cc2ccc(-c3ccccc3)cc2)Oc2c(NC(=O)NC3CCCCC3)cccc2C1=O,inactive: 0.984
4,C[C@@H]1CN([C@H](C)CO)C(=O)c2cc(NS(=O)(=O)c3cccs3)ccc2O[C@H]1CN(C)S(=O)(=O)c1cn(C)cn1,inactive: 0.988
5,Cc1cc(C(=O)Nc2cccc3c2O[C@H](CN(C)C(=O)NC2CCCCC2)[C@@H](C)CN([C@H](C)CO)C3=O)n(C)n1,inactive: 1.01
6,C[C@H](CO)N1C[C@H](C)[C@H](CN(C)C(=O)Cc2ccncc2)Oc2cc(C#CC3CCCCC3)ccc2S1(=O)=O,inactive: 0.989
7,C[C@H](CO)N1C[C@H](C)[C@H](CN(C)S(=O)(=O)c2ccc(Cl)cc2)OCc2cn(nn2)CCCC1=O,inactive: 1.02
8,CO[C@H]1O[C@H](CO)[C@@H](OC(=O)Nc2ccc3c(c2)OCO3)[C@@H]2OC(=O)[C@H](Cc3cccc(Br)c3)C/C=C/C[C@@H](Cc3cccc(Br)c3)C(=O)O[C@@H]12,inactive: 1.04
9,CCS(=O)(=O)N1C[C@@H](C)[C@H](OC)CN(C)C(=O)c2cc(NS(=O)(=O)c3ccccc3C)ccc2OC[C@H]1C,inactive: 1.03
10,C[C@@H]1CN([C@@H](C)CO)S(=O)(=O)c2ccc(C#C[C@@H](C)O)cc2O[C@H]1CN(C)C,inactive: 0.982
11,C[C@H]1CN([C@@H](C)CO)C(=O)CCCn2nncc2CO[C@@H]1CN(C)S(C)(=O)=O,inactive: 1.01
12,CN1CCN(c2c(F)cc3c(=O)c(C(=O)O)cn4c3c2OCN4C)CC1,active: 0.0475
13,C[C@@H]1CN([C@H](C)CO)C(=O)CCCn2nncc2CO[C@H]1CN(C)C(=O)c1cc(-c2ccccc2)on1,inactive: 0.999
14,C[C@@H]1CCCCO[C@H](CN(C)S(=O)(=O)c2cccs2)[C@@H](C)CN([C@H](C)CO)C(=O)c2cc(NC(=O)Nc3ccc(F)cc3)ccc2O1,inactive: 0.991
15,CN(C)CCCNC(=O)C[C@@H]1CC[C@@H]2[C@@H](COc3ccc(NS(C)(=O)=O)cc3C(=O)N2C)O1,inactive: 0.993
16,COc1ccc(NC(=O)Nc2ccc3c(c2)C(=O)N([C@H](C)CO)C[C@@H](C)[C@H](CN(C)Cc2ccc(Oc4ccccc4)cc2)O3)cc1,inactive: 1.02
17,C[C@@H]1CN([C@H](C)CO)C(=O)c2cc(NC(=O)NC3CCCCC3)ccc2O[C@@H](C)CCCCO[C@H]1CN(C)C(=O)NC1CCCCC1,inactive: 0.993
18,Cc1noc(C)c1S(=O)(=O)N(C)C[C@@H]1Oc2ccc(NS(=O)(=O)c3ccc(Cl)cc3)cc2CC(=O)N([C@@H](C)CO)C[C@@H]1C,inactive: 1.01
19,CNc1nc(SCC(N)=O)nc(N2CCOCC2)n1,inactive: 1.01
20,CC(=C\C(=O)O)/C=C(\C)C[C@H](C)CCCC[C@H](OC(=O)[C@H](CO)[C@H](O)CCCC[C@H](C)C/C(C)=C/C(C)=C/C(=O)O)[C@@H](CO)C(=O)O,inactive: 1.01
21,C[C@@H]1CN([C@H](C)CO)C(=O)c2cc(NC(=O)Nc3ccc(F)cc3)ccc2O[C@@H]1CN(C)Cc1ccc(-c2ccccc2)cc1,inactive: 1.02
22,Cc1ccc(S(=O)(=O)Nc2ccc3c(c2)C(=O)N([C@@H](C)CO)C[C@H](C)[C@@H](CN(C)S(=O)(=O)c2ccc(F)cc2)OCCCC[C@@H](C)O3)cc1,inactive: 1.04

row,Structure (SMILES),relative growth
1,NC(=O)c1cc(Cl)ccn1,inactive: 0.991
2,C[C@H]1CN([C@@H](C)CO)C(=O)c2cc(NC(=O)CCN3CCOCC3)ccc2O[C@@H]1CN(C)Cc1ccc2c(c1)OCO2,inactive: 0.998
3,COc1c(N2CC3CCCNC3C2)c(F)cc2c(=O)c(C(=O)O)cn(C3CC3)c12.Cl (centres undefined),active: 0.0459
4,CC(C)(C)CC(C)(C)c1ccc(O)c(Cc2ccc(Cl)cc2Cl)c1,inactive: 0.774
5,CCc1cccc(C)c1NC(C)=O,inactive: 0.979
6,CN(C)CC#Cc1ccc([C@@H]2[C@@H](CO)N3C(=O)CN(C(=O)CN(C)C)C[C@@H]23)cc1,inactive: 0.997
7,CC(C)C[C@@H](N)C(=O)NC1CCN(C(=O)C2CCCC2)CC1,inactive: 0.999
8,NC(C(=O)O)C(O)C(O)C(O)CO (centres undefined),inactive: 1
9,Cc1ccc(S(=O)(=O)Nc2ccc3c(c2)C(=O)N([C@@H](C)CO)C[C@H](C)[C@@H](CN(C)S(=O)(=O)c2cccs2)O3)cc1,inactive: 1.01
10,C[C@@H]1CN([C@H](C)CO)C(=O)c2cc(NS(=O)(=O)c3ccccc3)ccc2O[C@@H](C)CCCCO[C@@H]1CN(C)Cc1ccc(C(=O)O)cc1,inactive: 0.995
11,CCC(=O)N[C@H]1C=C[C@H](CC(=O)OC)O[C@@H]1CO,inactive: 0.971
12,C[C@H](CO)N1C[C@H](C)[C@@H](CN(C)S(=O)(=O)c2ccccc2)Oc2ccc(NC(=O)c3ccncc3)cc2CC1=O,inactive: 1.01
13,C[C@H](CO)N1C[C@H](C)[C@H](CN(C)S(=O)(=O)c2ccc(F)cc2)Oc2cc(Br)ccc2S1(=O)=O,inactive: 1.01
14,CCS(=O)(=O)N1CC[C@]2(CC1)CN([C@H](CO)c1c2c2ccc(cc2n1C)OC)C(=O)CN1CCOCC1,inactive: 0.983
15,O=C1/C(=C/c2cn(-c3ccccc3)nc2-c2ccc(OCc3ccccc3)cc2)SC(=S)N1CCS(=O)(=O)O,inactive: 0.873
16,Cc1cc(N)n2nc(C)cc2n1,inactive: 1
17,COc1ccc(S(=O)(=O)N(C)C[C@@H]2Oc3ccc(NS(=O)(=O)c4cccs4)cc3CC(=O)N([C@H](C)CO)C[C@@H]2C)cc1,inactive: 1.01
18,COc1ccc(S(=O)(=O)Nc2ccc3c(c2)C(=O)N([C@@H](C)CO)C[C@@H](C)[C@@H](CN(C)S(=O)(=O)c2c(C)noc2C)O3)cc1,inactive: 1.01
19,C[C@H](CO)N1C[C@H](C)[C@@H](CN(C)C(=O)Nc2cccc(C(F)(F)F)c2)OCc2cn(nn2)CCCC1=O,inactive: 0.971
20,C[C@H](CO)N1C[C@H](C)[C@H](CN(C)Cc2cncnc2)Oc2cc(C#CC3CCCC3)ccc2S1(=O)=O,inactive: 1.01
21,COc1ccc(S(=O)(=O)Nc2ccc3c(c2)C(=O)N([C@H](C)CO)C[C@H](C)[C@H](CN(C)CC2CCCCC2)OCCCC[C@@H](C)O3)cc1,inactive: 1.01
22,Clc1cccc(Cl)c1CSc1cccs1,inactive: 0.987

row,Structure (SMILES),relative growth
1,COc1ccc(S(=O)(=O)Nc2ccc3c(c2)CC(=O)N([C@@H](C)CO)C[C@@H](C)[C@H](CN(C)C)O3)cc1,inactive: 1.01
2,C[C@H](NC(=O)C[C@@H]1C[C@H]2c3cc(NC(=O)Nc4ccc(C(F)(F)F)cc4)ccc3O[C@H]2[C@H](CO)O1)c1ccccc1,inactive: 0.995
3,O=C(C[C@H]1C=C[C@H](NC(=O)c2cccnc2)[C@H](CO)O1)NCc1ccncn1,inactive: 0.999
4,COc1ccc(NC(=O)Nc2ccc3c(c2)C(=O)N([C@@H](C)CO)C[C@@H](C)[C@@H](CN(C)CC2CCCCC2)O3)cc1,inactive: 0.986
5,C[C@H](CO)N1C[C@H](C)[C@@H](CN(C)C(=O)Nc2ccc3c(c2)OCO3)Oc2c(NC(=O)Nc3ccc(C(F)(F)F)cc3)cccc2C1=O,inactive: 0.912
6,COc1ccc([C@@H]2CC=CC[C@@H](C)Oc3ccccc3C(=O)N(C)[C@H](Cc3ccccc3)C(=O)N2)c(OC)c1,inactive: 0.995
7,O=C(O)c1cccnc1C(=O)O,inactive: 0.992
8,O=C1c2ccncc2C(=O)N1CN1CCOCC1,inactive: 1
9,CCCNC(=O)N(C)C[C@@H]1Oc2cc(C#Cc3cccc(F)c3)ccc2S(=O)(=O)N([C@H](C)CO)C[C@H]1C,inactive: 1
10,COc1ccc(NC(=O)N(C)C[C@H]2Oc3c(NS(=O)(=O)c4cn(C)cn4)cccc3C(=O)N([C@H](C)CO)C[C@@H]2C)cc1,inactive: 1.01
11,COC(=O)[C@H](Cc1c[nH]c2ccccc12)NC(=O)[C@H](CCCCCC(=O)[C@@H](C)O)NC(=O)OC(C)(C)C,inactive: 0.983
12,CN(C)C(=O)C1CCNCC1,inactive: 1
13,C[C@H]1CN([C@@H](C)CO)C(=O)c2cccc(NC(=O)C3CCOCC3)c2O[C@H]1CN(C)Cc1ccc(-c2ccccc2)cc1,inactive: 1.01
14,Cc1ccc(S(=O)(=O)N(C)C[C@H]2OCCCC[C@@H](C)Oc3ccc(NS(=O)(=O)c4ccc(Cl)cc4)cc3C(=O)N([C@H](C)CO)C[C@H]2C)cc1,inactive: 1.04
15,Cc1noc(C)c1S(=O)(=O)N(C)C[C@@H]1Oc2ccc(NC(=O)NC(C)C)cc2CC(=O)N([C@@H](C)CO)C[C@@H]1C,inactive: 1.01
16,Cc1noc(C)c1S(=O)(=O)N(C)C[C@H]1Oc2ccc(NC(=O)c3ccncc3)cc2CC(=O)N([C@H](C)CO)C[C@H]1C,inactive: 0.949
17,Cc1cc(=O)n2c(C)nnc2[nH]1,inactive: 0.991
18,C[C@@H]1CN([C@H](C)CO)C(=O)c2cc(NC(=O)Nc3ccc(F)cc3)ccc2O[C@@H](C)CCCCO[C@H]1CN(C)Cc1ccc(C(F)(F)F)cc1,inactive: 0.992
19,C[C@H](CO)N1C[C@H](C)[C@@H](CN(C)Cc2ccc(Cl)c(Cl)c2)Oc2ccc(NC(=O)Nc3ccccc3)cc2C1=O,inactive: 0.995
20,CC1OC(OCC2OC(Oc3c(-c4ccc(OCCO)c(OCCO)c4)oc4cc(OCCO)cc(O)c4c3=O)C(O)C(O)C2O)C(O)C(O)C1O (centres undefined),inactive: 1.05
